# Out of some 310,000 compounds screened, about 2,200 (0.71%) showed an effect of 50% or more. Effects have a minus sign here. This is one part of the list.
# Target: human ether-à-go-go-related gene (hERG) potassium channel (human, UniProt Q12809)
# Test: primary screen, population patch clamp on CHO cells stably expressing hERG
# Chain of human ether-à-go-go-related gene (hERG) potassium channel (Q12809 whole entry, looked up): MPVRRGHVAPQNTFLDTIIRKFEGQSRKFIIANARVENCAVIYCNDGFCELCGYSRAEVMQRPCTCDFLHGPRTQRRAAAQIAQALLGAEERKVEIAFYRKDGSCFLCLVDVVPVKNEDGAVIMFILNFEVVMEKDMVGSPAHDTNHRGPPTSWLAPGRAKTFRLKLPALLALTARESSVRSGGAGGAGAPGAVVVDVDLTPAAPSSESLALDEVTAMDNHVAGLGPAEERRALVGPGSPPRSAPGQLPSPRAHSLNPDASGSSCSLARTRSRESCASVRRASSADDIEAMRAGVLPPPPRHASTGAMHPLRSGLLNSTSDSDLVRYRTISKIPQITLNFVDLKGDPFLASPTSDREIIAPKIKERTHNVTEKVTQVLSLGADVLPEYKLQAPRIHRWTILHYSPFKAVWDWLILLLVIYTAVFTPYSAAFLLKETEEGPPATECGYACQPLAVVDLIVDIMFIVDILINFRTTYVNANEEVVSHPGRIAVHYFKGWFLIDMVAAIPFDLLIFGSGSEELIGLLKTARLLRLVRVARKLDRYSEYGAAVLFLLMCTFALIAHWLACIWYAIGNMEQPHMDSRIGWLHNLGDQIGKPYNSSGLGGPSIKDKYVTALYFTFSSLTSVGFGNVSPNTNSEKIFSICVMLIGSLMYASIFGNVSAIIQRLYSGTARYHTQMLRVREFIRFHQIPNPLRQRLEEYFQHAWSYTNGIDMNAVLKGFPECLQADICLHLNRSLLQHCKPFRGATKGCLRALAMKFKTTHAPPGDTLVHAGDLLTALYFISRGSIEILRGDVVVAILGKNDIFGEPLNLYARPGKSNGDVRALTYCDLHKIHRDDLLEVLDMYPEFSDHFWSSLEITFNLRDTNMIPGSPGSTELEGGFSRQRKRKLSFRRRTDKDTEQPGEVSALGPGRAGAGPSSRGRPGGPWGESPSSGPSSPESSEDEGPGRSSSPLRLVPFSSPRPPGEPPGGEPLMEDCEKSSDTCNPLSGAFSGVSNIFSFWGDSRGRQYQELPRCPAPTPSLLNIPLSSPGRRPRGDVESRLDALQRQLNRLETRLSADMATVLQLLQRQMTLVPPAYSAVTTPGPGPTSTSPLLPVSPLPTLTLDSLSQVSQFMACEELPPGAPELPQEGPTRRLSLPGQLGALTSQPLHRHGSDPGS
row,Compound,"hERG current change (%, negative = inhibition) at 1uM [%]"
1,CCOc1ccccc1/C=N/n1c(C)nc2ccccc2c1=O,4.27
2,COc1ccc(-c2c(-c3cc(OC)cc(OC)c3)n(C)c3ccc(-c4ccc(OC)cc4F)cc23)cc1,15.1
3,Cc1c(NS(=O)(=O)c2ccc(C(=O)NCc3ccc(F)cc3)cc2)c(=O)n(-c2ccccc2)n1C,5.65
4,Cc1ccc(C2OC(=O)C=C2c2ccccc2)cc1 (stereo not shown),8.51
5,COC(CC(=O)NNC(=S)Nc1ccc(Cl)cc1)OC,13.5
6,Cc1[nH]ncc1N=Cc1ccc([N+](=O)[O-])cc1,2.91
7,COC(=O)CN(c1ccc(C(C)C)cc1)S(=O)(=O)c1c(C)[nH]c(=O)[nH]c1=O,16.5
8,Cc1ccc(C(c2c(O)nc3n(c2=O)CCS3)c2c(O)nc3n(c2=O)CCS3)cc1,12.8
9,CC(=O)N1CCOc2ccc(S(=O)(=O)Nc3ccc(C)cn3)cc21,4.68
10,CCC(C)NC(=O)C1CCCCN1S(=O)(=O)c1ccc(F)cc1 (stereo not shown),-0.181
11,CC1=CCP(=O)(c2ccccc2)C1 (stereo not shown),10.3
12,CC(C(=O)Nc1ccc(N2CCOCC2)cc1)N1C(=O)c2ccccc2C1=O (stereo not shown),3.56
13,Cc1noc(C)c1CSCC(=O)Nc1cc(Cl)ccc1N1CCCCC1,13.3
14,O=c1cc2n(c(=O)[nH]1)CCC1=C2CCCC1,12.6
15,CCCCC(C(=O)O)C(C)CC(=O)Nc1nccs1 (stereo not shown),10.1
16,O=C(CCCSc1ccccc1)Nc1cccc(CO)c1,11.2
17,COCCn1c(SCC(=O)Nc2cc(C)on2)nnc1-c1ccco1,3.08
18,Cc1ccc(CNC(=O)/C=C/c2ccc(Br)o2)cc1,5.37
19,CCOC(=O)c1ccccc1NC(=O)C=C(C)C,3.5
20,N#Cc1c(N)nc2c(c1-c1ccc3c(c1)OCO3)CCCCCC2,-1.25
21,CN(NC(=S)Nc1ccc(OC(F)F)cc1)C(=S)Nc1ccc(OC(F)F)cc1,6.54
22,COc1ccc(CC(=O)NC(C)c2nnc(SCC(=O)Nc3nc(C)cs3)n2C)cc1 (stereo not shown),11.6
23,Cn1c2ccccc2c2cnn(CC(=O)Nc3ccccc3Br)c(=O)c21,6.93

row,Compound,"hERG current change (%, negative = inhibition) at 1uM [%]"
1,N/C(=N\OC(=O)c1cccc2ccccc12)c1ccccn1,7.84
2,CCOC(=O)c1ccc(-n2c(CN3CCC(C(N)=O)CC3)nc3ccc([N+](=O)[O-])cc3c2=O)cc1,5.86
3,CCOC(=O)c1c(C)oc2ccc(OC(=O)COc3c(F)c(F)c(F)c(F)c3F)cc12,7.82
4,CCN(CC(=O)NCc1ccc(Cl)cc1)CC(=O)Nc1ccc(C(N)=O)cc1,14.9
5,CC(Oc1cccc(Cl)c1)C(=O)Nc1cc(S(=O)(=O)N2CCOCC2)ccc1N1CCCCC1 (stereo not shown),6.66
6,COc1cc(OC)cc(C(=O)NCC(=O)OCC(=O)C(C)(C)C)c1,9.69
7,O=C(NCCCn1ccnc1)c1ccc(Br)s1,0.298
8,COc1ccc(NC(=O)CSc2ncnc3c2sc2ccccc23)c(OC)c1,3.79
9,O=C(O)/C=C/C(=O)N1CCN(S(=O)(=O)c2cccc(C(F)(F)F)c2)CC1,1.07
10,CC1=Nn2c(nnc2-c2cc(C)[nH]n2)SC1,-4.46
11,CCCNC(=O)c1c(O)c2c([nH]c1=O)CCCC2,14.6
12,CC(C)=CC(=O)OCC(=O)NC(=O)NC(C)(C)C,12.9
13,O=C(COc1ccccc1)N1CCN(c2nnc(-c3ccccc3)c3ccccc23)CC1,-16
14,O=C(Cc1ccc(F)cc1)N1CCN(c2ccc(F)cc2)CC1,13.7
15,COCCCNC(=O)Cc1ccccc1OC,-0.816
16,O=C(Nc1ccc(F)cc1)NC1CCCCC1,5.18
17,NS(=O)(=O)c1ccc(CNC(=O)c2ccc(S(=O)(=O)NCc3ccco3)cc2)cc1,7.65
18,C=C(C)CNC(=S)N/N=C1\CCCCc2ccccc21,-32
19,COc1ccc(C(C(=O)NC2CCCCC2)N(C(=O)Cc2c[nH]c3ccccc23)c2ccc(NC(C)=O)cc2)cc1OC (stereo not shown),-2.68
20,CC(C)C(=O)N1CCN(c2nc(-c3ccccc3)c3c(c2C#N)CC(C)(C)OC3)CC1,-3.96
21,CCCC(c1nnnn1Cc1ccc(F)cc1)N1CCN(C2CCCCC2)CC1.Cl (stereo not shown),-44.6
22,COc1ccc(-c2ccc(C#N)c(SCC(=O)Nc3sc4c(c3C#N)CCC4)n2)cc1OC,7.22
23,NS(=O)(=O)c1cc(C(=O)OCC(=O)Nc2ccc3[nH]c(=O)[nH]c3c2)ccc1Cl,2.93

row,Compound,"hERG current change (%, negative = inhibition) at 1uM [%]"
1,CC(C)c1cccc(C2=CC(=O)C[C@H](c3ccc4c(c3)OCO4)C2)c1,5.21
2,Cc1cccc(C(=O)NC(=S)Nc2c(C)n(C)n(-c3ccccc3)c2=O)c1,7.91
3,O=C(Cc1cccs1)Nc1cccnc1,7.16
4,COc1ccccc1N1CCN(S(=O)(=O)c2cccc3nsnc23)CC1,5.57
5,O=C(CSc1nnc(-c2ccc(O)cc2)o1)Nc1ccc2c(c1)OCCO2,-3.89
6,Cc1ccc(Nc2ncnc3sc(C)c(C)c23)cc1C,13.5
7,Cc1csc(CN(C)C(=O)CC2C(=O)NCCN2Cc2ccc(-c3ccccc3)cc2)n1 (stereo not shown),11.8
8,Cc1ccc(NS(=O)(=O)c2ccc3c(c2)CC(=O)N3)cc1F,23
9,O=C(CCNc1cc(Cl)cc(Cl)c1)c1ccco1,7.24
10,COc1ccc(NC(=O)COn2nnc3ccc(Cl)cc32)cc1OC,14
11,Cc1nc2nc[nH]n2c(=O)c1NS(=O)(=O)c1ccc([N+](=O)[O-])cc1,13.7
12,C=CCn1cc(Cl)cc(C(=O)Nc2ccccc2)c1=O,8.64
13,Nc1ccc(-c2c3ccc(=O)cc-3oc3cc(O)ccc23)c(C(=O)O)c1,12.4
14,CCC1CCCCN1S(=O)(=O)c1ccc(C(=O)Nc2nnc(C3CC3)o2)cc1 (stereo not shown),5.35
15,CC(C)OCCCNC(=O)c1ccc2c(c1)ncn2C1CCCC1,6.25
16,Cc1cc(OC(C)C(N)=O)nc(-c2ccccc2)n1 (stereo not shown),4.52
17,CCC(=O)N1CCN(c2cc3c(cc2F)c(=O)c(C(=O)O)cn3CC)CC1,6.89
18,CC12CCC(C(=O)Nc3ccccc3Br)(C/C1=N\O)C2(C)C (stereo not shown),11.7
19,O=S(=O)(NCc1ccccc1)NCc1ccccc1,11.8
20,COC(=O)c1ccc(CSC(=N)N)o1,6.49
21,O=C(OC1CCOC1=O)c1ccc2ccccc2n1 (stereo not shown),7.36
22,Cc1ccc2c(CN3CCOCC3)cc(=O)oc2c1,-6.01
23,COc1ccc(OC)c(NC(=O)CSC2=NCCS2)c1,8.51

row,Compound,"hERG current change (%, negative = inhibition) at 1uM [%]"
1,Cc1cccc(N2C(=O)CSC2c2cccnc2)c1 (stereo not shown),13.6
2,COc1ccc(S(=O)(=O)N2CCN(C(=O)C3COc4ccccc4O3)CC2)cc1 (stereo not shown),8.97
3,O=C1CC(N2CCN(c3ccccc3F)CC2)C(=O)N1c1ccc2c(c1)OCCO2 (stereo not shown),21.3
4,Cc1ccc(OCc2cc(C(=O)N3CC4C[C@@H]5CC3C[C@H](C4)C5)no2)cc1C,18.4
5,COc1ccc(N(CC(=O)Nc2ccc(C(N)=O)cc2)S(=O)(=O)c2ccc(C)c([N+](=O)[O-])c2)cc1,13.5
6,Cc1nn(C)cc1C=NCCOCc1ccccc1,3.34
7,COCC(=O)Nc1sc2c(c1C(=O)OC)CCCC2,-15.9
8,CN(C1=NS(=O)(=O)c2ccccc21)c1ccc(OC(=O)c2ccccc2)cc1,16.4
9,COc1ccc(NC(=O)CS(=O)(=O)c2ccccc2)cc1,15.7
10,O/N=C/c1cccn1-c1ccc(O)cc1,-4.18
11,Nc1ncnc2nc[nH]c12,15.6
12,Cc1cc(Cl)ccc1OCC(=O)N/N=C1\CCCc2ccccc21,-4.02
13,O=C(NCCCN1CCCC1=O)C1CCC(CNS(=O)(=O)c2ccc(Cl)cc2)CC1 (stereo not shown),3.3
14,COc1ccc(Cl)cc1NC(=O)CN(C)C(=O)CN1C(=O)NC(C)(C)C1=O,12.2
15,CCOC(=O)C1CCCN(C(=O)c2cnn3c(C(F)F)cc(-c4ccc(C)cc4)nc23)C1 (stereo not shown),-3.14
16,CN1CCN(c2ccccc2NC(=O)c2cccs2)CC1,-8.79
17,COC(=O)NNC(=O)C(c1ccccc1)c1ccccc1,10.1
18,CCOC(=O)C1CCN(S(=O)(=O)c2c(C)[nH]c(C)c2C(=O)N2CCCC2)CC1,12.1
19,O=C(Cn1cnc2c(nnn2Cc2ccc(Cl)cc2)c1=O)N1CCN(c2ccccc2)CC1,3.91
20,NS(=O)(=O)c1ccc(CCN2C(=O)CCC2=O)cc1,10.5
21,Cc1ccc(N(CC(=O)N2CCOCC2)S(C)(=O)=O)cc1C,-1.99
22,COc1ccc(NS(=O)(=O)c2cccc(C(=O)N/N=C/c3ccc4c(c3)OCCO4)c2)cc1,9.64

# From paper PMC4336329 (PLoS ONE, 2015)
